In publication PMC9911399, “Two distinct binding modes provide the RNA-binding protein RbFox with extraordinary sequence specificity” one finds binding signal data, which are given here for 31 molecules.

The chains are these.
T1: RBFOX1 RRM (Homo sapiens, UniProt Q9NWB1 109-208)
T1 sequence: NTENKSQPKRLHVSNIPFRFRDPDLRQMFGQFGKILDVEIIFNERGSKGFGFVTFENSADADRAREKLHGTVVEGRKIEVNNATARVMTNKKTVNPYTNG

B1: UACUUUA (DNA:RNA)
RNA: GGGAGACCGGAAUUCAGAUUGUCCUACUUUAUUAAAUCCCGUCGUAGCCACCA
DNA 1: CAATCTGAATTCCGGTCTCCC
DNA 2: TGGTGGCTACGACGGGATT
B2: CCUUUCU (DNA:RNA)
RNA: B1 RNA with U25C, A26C, C27U, U30C, A31U
DNA 1: CAATCTGAATTCCGGTCTCCC
DNA 2: TGGTGGCTACGACGGGATT
B3: AGCGAGA (DNA:RNA)
RNA: B1 RNA with U25A, A26G, U28G, U29A, U30G
DNA 1: CAATCTGAATTCCGGTCTCCC
DNA 2: TGGTGGCTACGACGGGATT
B4: GGACGAG (DNA:RNA)
RNA: GGGAGACCGGAAUUCAGAUUGUCCGGACGAGUUAAAUCCCGUCGUAGCCACCA
DNA 1: CAATCTGAATTCCGGTCTCCC
DNA 2: TGGTGGCTACGACGGGATT
B5: CUAGUGA (DNA:RNA)
RNA: B1 RNA with U25C, A26U, C27A, U28G, U30G
DNA 1: CAATCTGAATTCCGGTCTCCC
DNA 2: TGGTGGCTACGACGGGATT
B6: CAAGAUC (DNA:RNA)
RNA: B1 RNA with U25C, C27A, U28G, U29A, A31C
DNA 1: CAATCTGAATTCCGGTCTCCC
DNA 2: TGGTGGCTACGACGGGATT
B7: CUACGUC (DNA:RNA)
RNA: B4 RNA with G25C, G26U, A30U, G31C
DNA 1: CAATCTGAATTCCGGTCTCCC
DNA 2: TGGTGGCTACGACGGGATT
B8: AUAGGGU (DNA:RNA)
RNA: B4 RNA with G25A, G26U, C28G, A30G, G31U
DNA 1: CAATCTGAATTCCGGTCTCCC
DNA 2: TGGTGGCTACGACGGGATT
B9: ACAGCAC (DNA:RNA)
RNA: B4 RNA with G25A, G26C, C28G, G29C, G31C
DNA 1: CAATCTGAATTCCGGTCTCCC
DNA 2: TGGTGGCTACGACGGGATT
B10: CAAGGAA (DNA:RNA)
RNA: B4 RNA with G25C, G26A, C28G, G31A
DNA 1: CAATCTGAATTCCGGTCTCCC
DNA 2: TGGTGGCTACGACGGGATT
B11: UUAAUCG (DNA:RNA)
RNA: B4 RNA with G25U, G26U, C28A, G29U, A30C
DNA 1: CAATCTGAATTCCGGTCTCCC
DNA 2: TGGTGGCTACGACGGGATT
B12: GGUCACU (DNA:RNA)
RNA: B4 RNA with A27U, G29A, A30C, G31U
DNA 1: CAATCTGAATTCCGGTCTCCC
DNA 2: TGGTGGCTACGACGGGATT
B13: AAACUAA (DNA:RNA)
RNA: B4 RNA with G25A, G26A, G29U, G31A
DNA 1: CAATCTGAATTCCGGTCTCCC
DNA 2: TGGTGGCTACGACGGGATT
B14: UGGGAUG (DNA:RNA)
RNA: B4 RNA with G25U, A27G, C28G, G29A, A30U
DNA 1: CAATCTGAATTCCGGTCTCCC
DNA 2: TGGTGGCTACGACGGGATT
B15: CGAAAAA (DNA:RNA)
RNA: B4 RNA with G25C, C28A, G29A, G31A
DNA 1: CAATCTGAATTCCGGTCTCCC
DNA 2: TGGTGGCTACGACGGGATT
B16: CUAAUGU (DNA:RNA)
RNA: B4 RNA with G25C, G26U, C28A, G29U, A30G, G31U
DNA 1: CAATCTGAATTCCGGTCTCCC
DNA 2: TGGTGGCTACGACGGGATT
B17: UCAGGGU (DNA:RNA)
RNA: B4 RNA with G25U, G26C, C28G, A30G, G31U
DNA 1: CAATCTGAATTCCGGTCTCCC
DNA 2: TGGTGGCTACGACGGGATT
B18: CCGUUUG (DNA:RNA)
RNA: B1 RNA with U25C, A26C, C27G, A31G
DNA 1: CAATCTGAATTCCGGTCTCCC
DNA 2: TGGTGGCTACGACGGGATT
B19: CGCGCGU (DNA:RNA)
RNA: B4 RNA with G25C, A27C, C28G, G29C, A30G, G31U
DNA 1: CAATCTGAATTCCGGTCTCCC
DNA 2: TGGTGGCTACGACGGGATT
B20: CCGGCCU (DNA:RNA)
RNA: GGGAGACCGGAAUUCAGAUUGUCCCCGGCCUUUAAAUCCCGUCGUAGCCACCA
DNA 1: CAATCTGAATTCCGGTCTCCC
DNA 2: TGGTGGCTACGACGGGATT
B21: CUCAACC (DNA:RNA)
RNA: B20 RNA with C26U, G27C, G28A, C29A, U31C
DNA 1: CAATCTGAATTCCGGTCTCCC
DNA 2: TGGTGGCTACGACGGGATT
B22: ACCUAGA (DNA:RNA)
RNA: B1 RNA with U25A, A26C, U29A, U30G
DNA 1: CAATCTGAATTCCGGTCTCCC
DNA 2: TGGTGGCTACGACGGGATT
B23: GCACGCG (DNA:RNA)
RNA: B4 RNA with G26C, A30C
DNA 1: CAATCTGAATTCCGGTCTCCC
DNA 2: TGGTGGCTACGACGGGATT
B24: GUCCUAC (DNA:RNA)
RNA: B4 RNA with G26U, A27C, G29U, G31C
DNA 1: CAATCTGAATTCCGGTCTCCC
DNA 2: TGGTGGCTACGACGGGATT
B25: GAAGCCA (DNA:RNA)
RNA: B20 RNA with C25G, C26A, G27A, U31A
DNA 1: CAATCTGAATTCCGGTCTCCC
DNA 2: TGGTGGCTACGACGGGATT
B26: ACUACGU (DNA:RNA)
RNA: B20 RNA with C25A, G27U, G28A, C30G
DNA 1: CAATCTGAATTCCGGTCTCCC
DNA 2: TGGTGGCTACGACGGGATT
B27: UUUGUCA (DNA:RNA)
RNA: B1 RNA with A26U, C27U, U28G, U30C
DNA 1: CAATCTGAATTCCGGTCTCCC
DNA 2: TGGTGGCTACGACGGGATT
B28: UGUACCU (DNA:RNA)
RNA: B20 RNA with C25U, C26G, G27U, G28A
DNA 1: CAATCTGAATTCCGGTCTCCC
DNA 2: TGGTGGCTACGACGGGATT
B29: ACCGACG (DNA:RNA)
RNA: B20 RNA with C25A, G27C, C29A, U31G
DNA 1: CAATCTGAATTCCGGTCTCCC
DNA 2: TGGTGGCTACGACGGGATT
B30: AGAAGAC (DNA:RNA)
RNA: B4 RNA with G25A, C28A, G31C
DNA 1: CAATCTGAATTCCGGTCTCCC
DNA 2: TGGTGGCTACGACGGGATT
B31: GCUCAUG (DNA:RNA)
RNA: B4 RNA with G26C, A27U, G29A, A30U
DNA 1: CAATCTGAATTCCGGTCTCCC
DNA 2: TGGTGGCTACGACGGGATT

Residue numbers refer to the chain shown, from its start. The list shows a part of the results.

This test deals with T1, RBFOX1 RRM. In words: EMSA; HiTS-Eq, 1 nM pool, 10 min; buffer printed only for the single-RNA assays: 10 mM Tris pH 7.5, 150 mM NaCl, 3.4 mM EDTA, 0.001% NP-40, 30 C. The following applies: tags: His6 N-terminal (pET28a); label: 5' 32P. A digest of the protocol: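 These values rest on relative association constants, computed from read-count changes of each RNA species versus the control reaction and normalised to the cognate motif. Reads came from free RNA recovered by 8% native PAGE after purified RbFox RRM (wild type or mutant) at increasing concentrations was equilibrated for 10 min in 50 µL with 1 nM of a 5′-radiolabelled pool with 7 randomized nucleotides and DNA-annealed flanks.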
Consider B1, for which the binding signal was 0.00341 KA relative to UGCAUGU.

With B2, the binding signal is 0.00554 KA relative to UGCAUGU.

B3: the binding signal is 0.0112 KA relative to UGCAUGU.

With B4, the binding signal is 0.0194 KA relative to UGCAUGU.

For B5, the binding signal is 0.00852 KA relative to UGCAUGU.

With B6, the binding signal was 0.00144 KA relative to UGCAUGU.

Regarding B7, the binding signal is 0.0065 KA relative to UGCAUGU.

As for B8, the binding signal is 0.00664 KA relative to UGCAUGU.

For B9, the binding signal was 0.00464 KA relative to UGCAUGU.

For the molecule B10, the binding signal is 0.00944 KA relative to UGCAUGU.

As to B11, the binding signal was 0.0123 KA relative to UGCAUGU.

Turning to B12, the binding signal is 0.0035 KA relative to UGCAUGU.

Consider B13, for which the binding signal was 0.00123 KA relative to UGCAUGU.

B14: the binding signal was 0.0414 KA relative to UGCAUGU.

For B15, the binding signal was 0.00119 KA relative to UGCAUGU.

With B16, the binding signal is 0.00674 KA relative to UGCAUGU.

Take B17: the binding signal was 0.00906 KA relative to UGCAUGU.

As for B18, the binding signal is 0.0217 KA relative to UGCAUGU.

B19: the binding signal is 0.0184 KA relative to UGCAUGU.

Consider B20, for which the binding signal was 0.0204 KA relative to UGCAUGU.

Regarding B21, the binding signal is 0.000946 KA relative to UGCAUGU.

With B22, the binding signal is 0.00353 KA relative to UGCAUGU.

For B23, the binding signal is 0.0376 KA relative to UGCAUGU.

On to B24, for which the binding signal is 0.00966 KA relative to UGCAUGU.

On to B25, for which the binding signal was 0.00429 KA relative to UGCAUGU.

As for B26, the binding signal was 0.00446 KA relative to UGCAUGU.

B27: the binding signal was 0.0139 KA relative to UGCAUGU.

Take B28: the binding signal is 0.00778 KA relative to UGCAUGU.

As to B29, the binding signal is 0.00342 KA relative to UGCAUGU.

With B30, the binding signal is 0.00541 KA relative to UGCAUGU.

As for B31, the binding signal was 0.0119 KA relative to UGCAUGU.
